Results reported in the supplement of paper PMC10126150.
Values marked as one replicate rest on one cluster of the flow cell; about a third of the high ones do not repeat.

Test system: ATP
Assay: switch fluorescence ratio, 500 uM ATP over buffer (Cy3 cluster intensity, sum of 5 cycles each) (fold (ratio)); higher = stronger signal-on switching upon ATP binding; sequences stand for … in TCGTCGGCAGCGTCAGATGTGTATAAGAGACAGTTTTTTTTTTTTTTTTTTTTTTTTT…TC
Conditions: aptamer strand: ATP DNA aptamer (quencher-CACCTGGGGGAGTATTGCGGAGGAAGG + anchor), 100 nM annealed; ATP concentration: 500 uM; one replicate
Summary of the method: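 Values give the fluorescence ratio for each switch-domain sequence, averaged from per-cluster ratios of summed target-cycle to summed buffer-cycle Cy3 intensity. The Cy3-labelled switching-strand clusters sat on a modified Illumina MiSeq flow-cell, were annealed to 100 nM quencher-labelled ATP aptamer, and were imaged in selection buffer, then after 15 min with 500 uM ATP at 22 °C. Five cycles ran with NaOH stripping and re-annealing between them, and clusters outside 100-1000 RFU were excluded.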
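Also: ATP exposure 15 min at 22 °C before imaging.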

Sequence	switch fluorescence ratio
GGCTTTCGAA	0.989
CGGTTTTGAC	1.02
TGGCACGTGG	0.991
GCACGAGTAT	1
ATAGGCGGA	0.905
TTAAGGTCAA	0.999
CTGAGCAGCA	1.16
CTAGATCGGG	1.01
ATGGTGGAAC	0.983
CGCTGCAGGA	1.11
TCTTTGAGTG	0.957
CGTGCGAGCG	0.943
GACATATGTT	1
ACTAAAAACA	1.02
GCGCCATC	1.42
TGACGCCCGG	1.02
ATACCGCTT	1.63
GTAATATCAG	1
CGACTTCTGG	1.02
AGCAGGCATA	1.02
TTTGATTTAT	1
GGTTTGATCT	1.02
TAATATTGAC	1.01
CCAAACGGAG	1.02
AGTACCCCCG	1.19
TCAAGGAA	0.95

Sequence	switch fluorescence ratio
GAGGCAGAGC	1.11
ATAACGGCTA	1.02
AGAGTAAGTA	0.991
TGGAGGTAGA	1.06
TTGCAGTCTT	1.02
TGCACGGATA	1.04
TCCAAGAGAT	1.03
GCTAGATACC	0.993
TGATTGTAA	1.02
ATCCACGTTC	1.05
CCAACCGTCT	1.1
GAGGTAAATT	1
ATAAAGGGTA	1.03
TAGAGCAG	1.01
GTTCTATTAC	1.02
GGTCGCTCCC	1
TGCCGCGAGC	1.45
GTGTCCCTG	1.03
ATATTTTACT	1.02
CGCAACACGG	4.07
ACTATCTTTC	1.06
TGTAAGGCT	1.07
AGTTTATACG	1.01
GCCTCTGTAT	1.09
GGGGGCATTC	1.03
AAGTCGCTTA	1.02

Sequence	switch fluorescence ratio
AGTTTGTT	0.991
TGATTAACGG	1.04
TCGGGAGCCA	0.986
AATGATCACT	1.03
GCGATTGAGA	0.995
ACTTAAGCCT	1.18
CGTGTCGTCG	1.12
GATCTTTGGT	1.02
AGAAGTGTGC	0.973
GCAGGCTGTA	0.992
GGTATTCCCG	1.05
TTCTTCTAGC	0.988
GGTTGAATG	1.03
AGTTTGTGCT	0.963
TGGTTTGTGC	0.976
TCTCATGTGT	1.05
CTTCAAGCGG	1.1
TCAAGTATA	1.03
TTTGCCTCTT	0.977
AAAGTTCGAC	1.02
ACCGATTATG	1.05
AAAGTTGTGC	1.03
AACGTGGATG	1.04
CTCACTCGAG	0.975
CAAGCCGGAT	1.05
GTAAGGTGCT	1.1

Sequence	switch fluorescence ratio
GCGTTACCTC	1.03
TGGTGGGAAA	0.96
CCCTAGGCCA	1.04
TTCCCCGAAA	2.46
TCTTGGAGAC	0.965
GACATGTAGG	1.02
TAAGATGCGC	0.997
GGGGTTCAAC	1.02
ATGGTCAATG	0.98
TTTCGAACGA	1.05
CTCCTGAATG	1.08
AAGTATAAAA	0.969
ACAAGTGTAG	0.996
CTTGTTGGGG	0.977
TACTTAGACG	1.08
TCCCGTTGGC	1
CCTAATTCAG	1.02
CTACCTAAGT	1.07
GCACTCGG	0.948
CCTAATTATT	1.01
CTCCCTCTTT	1.07
GCTGATTC	0.953
CTGATCGTGG	1.02
CAAGGCTTAC	1.77
ACCAATGAGC	1.1
TTGAATGGT	0.975

Sequence	switch fluorescence ratio
GTCAGATCTT	0.99
TGCTAGACGC	1.04
ACCAAATAGT	1.02
CTTACTAGGG	0.99
CTTCTGATAC	2.43
AATTATGTCT	0.984
TTAGTTCGTG	1.01
TTCGCTGAAG	1.04
TAGTAGGG	0.955
GTCAGCAGCT	0.964
AGTGAAGTAT	0.998
GTAGCTCCAT	1.03
TAGGCGCTGA	1.05
CGGGGTGCGC	0.921
TAAAGTGAAG	1.01
ACGTTAAAAG	1.04
TTTACAACTA	1
TTAATAACAA	1.03
TATAATGCGG	1
GGATTGGGAA	0.994
GCGAATTGTG	1.04
ATACCAGCGG	1.02
AAAACTCCCG	1.08
CATTATTCGA	0.971
GCTGTGCGA	1.06
CTAGGATGAG	1.01

Sequence	switch fluorescence ratio
GATAAGGTGT	1.21
CAGAAGGCGA	1.19
TACTCAGAAA	1.27
CTCAGTAGAA	1
GAGAACACGA	1
CGAGTCTGGG	1.02
GCGTAGTGCG	1.02
GGTTTGGCTC	1.02
TTTCCCGCCC	3.89
TCGTATTCT	1.01
AGTGATATAT	0.998
TAGGAAACCC	1.03
ACTAACGCTC	1.27
AGATATCCGG	0.992
AATTCTTACG	1.02
TCGTAGCGCG	1.03
TGACTGCTGC	1.06
CCGGAGAATT	3.02
GATATACGAC	1.3
TTCAAACGT	1.04
AGCTTTAGCG	0.981
TTTTATGAAT	0.976
ACTTATGTAT	1.04
AATTACATCG	1.03
CAAAAGTTCC	1.13
CGGCAACGCT	1.01

Sequence	switch fluorescence ratio
TCTGAAACAC	1.18
ACCCTAGGTC	1.12
TTACAGGC	1
TTTAGTAGCC	0.964
TTAGTTGTCA	0.983
TACCCCGAAC	1.23
ACATCCTGAA	1.03
CGCCCTGCG	1.01
AGGCGAGTAT	0.984
TATTACACT	1.03
TGTGAGGATT	1.41
TGGGCCCCCC	1.06
AGCGGACGGG	1.01
CGTACATAAA	0.991
GGGCTCTGGG	1.01
AGATATATAA	0.975
GCGCTTTTG	0.998
AAGTGTGC	0.883
CCAGGTGGTA	2.97
CTTGCTCTTT	0.999
TCTAGGAGTG	0.969
CAGAATACTT	1.01
TACATGTTAA	1.03
TCAGATAGTC	0.985
ACGGCGGTTG	1
AACTATGCA	1

Sequence	switch fluorescence ratio
TATACAGGTC	0.988
CGTTCATTA	1
TCTATGCTGG	1
TCTAATTTAA	0.981
AGTTAGACAA	1.01
AATTGTACCA	1.01
GTATTTAAC	1.05
TATTAGCAGT	0.95
TACTTTTGC	0.969
AGGCATCATC	1.05
GCAATCACGG	1.5
GCAGGTTGTG	1.02
AGTGCTAAG	1.02
ATCGGACTGT	0.988
GGCGCTAAAC	1.12
TTGAATTTAT	1
TGTATTAACT	1.02
CGGATCTACG	0.971
TAACATTCTT	1.06
